Data set [1] in a line: Size exclusion chromatography, % aggregate fraction of ADC. The conditions noted are these: ADCs of Table 27. The data set is classed as physicochemical. As for the experimental part:
Size exclusion chromatography was performed using a Shodex KW802.5 column in 0.2M potassium phosphate pH 6.2 with 0.25 mM potassium chloride and 15% IPA at a flow rate of 0.75 ml/min. The peak area absorbance at 280 nm was determined for each of the high molecular weight and monomeric eluents by integration of the area under the curve. The % aggregate fraction of the conjugate sample was determined by dividing the peak area absorbance at 280 nm for the high molecular weight eluent by the sum of the peak area absorbances at […] of the high molecular weight and monomeric eluents multiplied by 100%.
Background: SEC sorts molecules by how far they enter the pores of the column.

The nature of data set [2]: DAR determination by LC-MS. The conditions noted are these: ADCs of Table 27. As for the experimental part: LC-MS analysis was performed using an Agilent 1100 HPLC system interfaced to an Agilent LC/MSD TOF 6220 ESI mass spectrometer. The ADC was reduced with 5 mM (final concentration) BOND-BREAKER TCEP solution (Thermo Scientific, Rockford, Ill.), loaded onto a Protein Microtrap (Michrom Bioresorces, Auburn, Calif.) desalting cartridge, and eluted with a gradient of 10% B to 75% B in 0.2 minutes at ambient temperature. Mobile phase A was H2O with 0.1% formic acid (FA), mobile phase B was acetonitrile with 0.1% FA, and the flow rate was 0.2 ml/min. Electrospray-ionization time-of-flight mass spectra of the co-eluting light and heavy chains were acquired using Agilent MassHunter™ acquisition software. The extracted intensity vs. m/z spectrum was deconvoluted using the Maximum Entropy feature of MassHunter software to determine the mass of each reduced antibody fragment. DAR was calculated from the deconvoluted spectrum by summing intensities of the naked and modified peaks for the light chain and heavy chain, normalized by multiplying intensity by the number of drugs attached. The summed, normalized intensities were divided by the sum of the intensities, and the summing results for two light chains and two heavy chains produced a final average DAR value for the full ADC.

B1: CD98 (CL-huAb102)-LB (conjugate)
heavy: EVQLVESGGGLVQPGGSLRLSCATSGFTFIDYYMSWVRQAPGKGLEWLGFIRNKANRYTTEYSASVKGRFTISRDNSKSILYLQMNSLKTEDTAVYYCTRDRPAWFVYWGQGTLVTVSSASTKGPSVFPLAPSSKSTSGGTAALGCLVKDYFPEPVTVSWNSGALTSGVHTFPAVLQSSGLYSLSSVVTVPSSSLGTQTYICNVNHKPSNTKVDKKV[omitted - human IgG1 Fc with changes]
light: DIVMTQTPLSLPVTPGEPASISCKSSQSLLYSSNQKNYLAWYLQKPGQSPQLLIYWASTRESGVPDRFSGSGSGTDFTLKISRVEAEDVGVYYCQQYYSYPYTFGGGTKVEIKRTVAAPSVFIFPPSDEQLKSGTASVVCLLNNFYPREAKVQWKVDNALQSGNSQESVTEQDSKDSTYSLSSTLTLSKADYEKHKVYACEVTHQGLSSPVTKSFNRGEC
Consider B1, for which the “% agg by SEC” value in data set [1] was determined as 4.5%. In data set [2], the “DAR by MS” value is 2.

B2: CD98 (CL-huAb104)-LB (conjugate)
heavy: EVQLVESGGGLVQPGGSLRLSCATSGFTFIDYYMSWVRQAPGKGLEWLGFIRNKAYGYTTEYSASVKGRFTISRDNSKSILYLQMNSLKTEDTAVYYCTRDRPAWFVYWGQGTLVTVSSASTKGPSVFPLAPSSKSTSGGTAALGCLVKDYFPEPVTVSWNSGALTSGVHTFPAVLQSSGLYSLSSVVTVPSSSLGTQTYICNVNHKPSNTKVDKKV[omitted - human IgG1 Fc with changes]
light: DIVMTQTPLSLPVTPGEPASISCKSSQSLLYSSNQKNYLAWYLQKPGQSPQLLIYWASTRESGVPDRFSGSGSGTDFTLKISRVEAEDVGVYYCQQYYSYPYTFGGGTKVEIKRTVAAPSVFIFPPSDEQLKSGTASVVCLLNNFYPREAKVQWKVDNALQSGNSQESVTEQDSKDSTYSLSSTLTLSKADYEKHKVYACEVTHQGLSSPVTKSFNRGEC
As to B2, the “% agg by SEC” value in data set [1] is 13.6%. The “DAR by MS” value in data set [2] amounted to 2.2.

B3: CD98 (CL-huAb110)-WD (conjugate)
heavy: EVQLVQSGAEVKKPGASVKVSCKASGFTFSDYTMAWVRQAPGQGLEWVATIIYDARGTYYRDAVKGRFTITRDNSTSTLYLELSSLRSEDTAVYYCARQSDDTYYYWGYFDYWGQGTMVTVSSASTKGPSVFPLAPSSKSTSGGTAALGCLVKDYFPEPVTVSWNSGALTSGVHTFPAVLQSSGLYSLSSVVTVPSSSLGTQTYICNVNHKPSNTKVDKKV[omitted - human IgG1 Fc with changes]
light: DIVMTQTPLSLPVTPGEPASINCKSSQSLLFSGNQKNYLAWYLQKPGQSPQLLIYWASTRQSGVPDRFSGSGSGTDFTLKISRVEAEDVGIYYCQQYYSSPYTFGQGTKLEIKRTVAAPSVFIFPPSDEQLKSGTASVVCLLNNFYPREAKVQWKVDNALQSGNSQESVTEQDSKDSTYSLSSTLTLSKADYEKHKVYACEVTHQGLSSPVTKSFNRGEC
Regarding B3, the “% agg by SEC” value in data set [1] stood at 4.8%. Besides, the “DAR by MS” value in data set [2] stood at 1.8.

B4: CD98 (CL-huAb102)-WD (conjugate)
heavy: EVQLVESGGGLVQPGGSLRLSCATSGFTFIDYYMSWVRQAPGKGLEWLGFIRNKANRYTTEYSASVKGRFTISRDNSKSILYLQMNSLKTEDTAVYYCTRDRPAWFVYWGQGTLVTVSSASTKGPSVFPLAPSSKSTSGGTAALGCLVKDYFPEPVTVSWNSGALTSGVHTFPAVLQSSGLYSLSSVVTVPSSSLGTQTYICNVNHKPSNTKVDKKV[omitted - human IgG1 Fc with changes]
light: DIVMTQTPLSLPVTPGEPASISCKSSQSLLYSSNQKNYLAWYLQKPGQSPQLLIYWASTRESGVPDRFSGSGSGTDFTLKISRVEAEDVGVYYCQQYYSYPYTFGGGTKVEIKRTVAAPSVFIFPPSDEQLKSGTASVVCLLNNFYPREAKVQWKVDNALQSGNSQESVTEQDSKDSTYSLSSTLTLSKADYEKHKVYACEVTHQGLSSPVTKSFNRGEC
B4: in data set [1], the “% agg by SEC” value was 0%. Further, the “DAR by MS” value in data set [2] turned out to be 1.4.

B5: CD98 (CL-huAb110)-LB (conjugate)
heavy: EVQLVQSGAEVKKPGASVKVSCKASGFTFSDYTMAWVRQAPGQGLEWVATIIYDARGTYYRDAVKGRFTITRDNSTSTLYLELSSLRSEDTAVYYCARQSDDTYYYWGYFDYWGQGTMVTVSSASTKGPSVFPLAPSSKSTSGGTAALGCLVKDYFPEPVTVSWNSGALTSGVHTFPAVLQSSGLYSLSSVVTVPSSSLGTQTYICNVNHKPSNTKVDKKV[omitted - human IgG1 Fc with changes]
light: DIVMTQTPLSLPVTPGEPASINCKSSQSLLFSGNQKNYLAWYLQKPGQSPQLLIYWASTRQSGVPDRFSGSGSGTDFTLKISRVEAEDVGIYYCQQYYSSPYTFGQGTKLEIKRTVAAPSVFIFPPSDEQLKSGTASVVCLLNNFYPREAKVQWKVDNALQSGNSQESVTEQDSKDSTYSLSSTLTLSKADYEKHKVYACEVTHQGLSSPVTKSFNRGEC
For the molecule B5, in data set [1], the “% agg by SEC” value was 18%. Moreover, the “DAR by MS” value in data set [2] was 2.1.

Values taken from patent US20230120736A1, “ANTI-CD98 ANTIBODIES AND ANTIBODY DRUG CONJUGATES” (AbbVie Inc., priority 2016, published 2023).
